Scores whose standard error is large were omitted. Two further conditions of the source, in which the scores hardly spread, are not listed. Read del as a deletion of the residues named and ins as an insertion between two positions. For some assays here: The data file names ogerin without a concentration.
B1: GPR68, Q15743 (parent)
chain: MGNITADNSSMSCTIDHTIHQTLAPVVYVTVLVVGFPANCLSLYFGYLQIKARNELGVYLCNLTVADLFYICSLPFWLQYVLQHDNWSHGDLSCQVCGILLYENIYISVGFLCCISVDRYLAVAHPFRFHQFRTLKAAVGVSVVIWAKELLTSIYFLMHEEVIEDENQHRVCFEHYPIQAWQRAINYYRFLVGFLFPICLLLASYQGILRAVRRSHGTQKSRKDQIQRLVLSTVVIFLACFLPYHVLLLVRSVWEASCDFAKGVFNAYHFSLLLTSFNCVADPVLYCFVSETTHRDLARLRGACLAFLTCSRTGRAREAYPLGAPEASGKSGAQGEEPELLTKLHPAFQTPNSPGSGGFPTGRLA

Experiments:
[1] = variants of: B1; assay: cAMP reporter score (Enrich2 score, wild type = 0); higher = more signal; HEK293T, FACS bins
[2] = variants of: B1; assay: surface expression score (Enrich2 score, wild type = 0); higher = more signal; HEK293T, FACS bins

Variant	cAMP reporter score ([1]; pH 5.5)	cAMP reporter score ([1]; pH 6)	cAMP reporter score ([1]; pH 6, modulator: ogerin)	cAMP reporter score ([1]; pH 6.5, modulator: ogerin)	surface expression score [2]
Y106D	0.221	-0.005	-0.198	-0.731	-2.01
Y106E	-0.96	-1.23	-1.72	-1.36	-1.59
Y106F	-1.24	-1.19	-1.44	-1.47	-2.44
Y106G	-1.13	-0.829	-1.24	-0.905	-2.29
Y106H	-0.478	-0.196	-0.653	-0.701	-0.588
Y106I	-1.28	-0.809	-1.51	-0.827	-2.48
Y106K	-0.913	-0.099	-1.36	-0.423	-0.994
Y106L	-1.05	-0.672	-1.45	-1.41	-2.8
Y106M	-1.31	-1.02	-1.56	-0.677	-1.09
Y106N	-0.586	0.414	-2.46	-0.445	–
Y106P	-1.9	–	-1.69	-0.353	-1.55
Y106Q	0.461	-0.287	-0.323	-1.5	-1.01
Y106R	-1.48	-0.961	-1.75	-1.14	-2.7
Y106S	-0.454	-1.9	-0.448	-1.48	-0.86
Y106T	1.07	–	-0.795	-1.11	-2.59
Y106W	-0.345	-1.18	-2.3	-1.33	-1.85
Y106_I107insG	-1.16	-0.696	-0.663	–	-2.83
Y106del	-2.59	-1	-1.31	-1.17	-2.09
I107_S108del	-0.549	-0.493	-0.839	-1.04	-2.66
S108_V109del	-0.7	-1.45	-2.2	-1.4	-2.6
V109_F111del	-1.23	-1.03	–	-1.68	-2.54
V109_G110del	-0.438	0.114	-1.64	-0.407	-2.69

Variant	cAMP reporter score ([1]; pH 5.5)	cAMP reporter score ([1]; pH 6)	cAMP reporter score ([1]; pH 6, modulator: ogerin)	cAMP reporter score ([1]; pH 6.5, modulator: ogerin)	surface expression score [2]
V109_G110insGS	-0.489	–	–	-0.679	-1.18
V109del	-1.44	–	-1.84	-1.74	-3.26
G110A	0.613	0.252	0.343	0.545	0.385
G110D	2.16	1.09	–	–	2.12
G110E	-0.452	0.735	-0.737	-0.407	-0.592
G110F	2.93	–	–	0.406	-0.409
G110H	1.91	4.5	1.75	1.84	0.378
G110I	0.562	1.01	-0.793	-0.423	-1.46
G110K	-0.087	–	0.245	-0.139	-0.939
G110L	-0.278	–	-0.299	-0.977	-1.86
G110M	0.092	3.45	0.564	–	-1.74
G110P	-1.07	0.263	–	-2.56	-2.95
G110Q	1.49	3.15	-0.401	1.29	–
G110W	2.74	–	2.34	–	2.32
G110Y	0.256	–	0.184	0.557	-0.42
L112_C113insGS	-1.38	-1.09	-0.754	-1.63	-2.45
L112del	-1.8	-1.06	-1.6	-1.11	-2.08
C113_C114insGSG	-0.678	-2.06	–	0.008	–
C113del	-1.34	-0.837	-1.09	-1.9	-2.29
C114_I115insGS	-1.42	-0.842	-1.46	-1.47	-2.69
I115del	-1.43	0.085	-1.18	-0.566	-1.62
S116_V117del	-0.505	-0.313	-1.65	-0.7	-2.52

Variant	cAMP reporter score ([1]; pH 5.5)	cAMP reporter score ([1]; pH 6)	cAMP reporter score ([1]; pH 6, modulator: ogerin)	cAMP reporter score ([1]; pH 6.5, modulator: ogerin)	surface expression score [2]
S116_V117insGSG	-1.1	-1.75	-2.08	-1.54	-2.01
V117_D118del	-1.48	-1.47	-1.2	-1.15	-2.14
V117_R119del	-0.737	-0.644	-0.966	-1.44	-2.45
D118_R119del	-1.16	–	–	-0.926	-2.84
D118_Y120del	-1.48	-0.609	-1.34	-0.99	-2.3
R119del	-1.88	-1.17	-1.39	-1.25	-2.93
L121A	0.963	0.286	-0.753	–	-1.56
L121C	-0.061	-0.812	-0.774	0.117	-1.83
L121D	-0.389	-0.218	–	–	-1.56
L121E	-0.154	-1.13	-2.34	-1.74	-1.81
L121F	0.811	–	0.185	–	-1.1
L121G	-1.71	-1.28	-1.02	-1.21	-2.49
L121H	-1.78	–	-0.792	-0.638	-2.71
L121I	-0.03	–	0.187	0.565	-0.237
L121K	-2.36	–	–	-0.844	-2.49
L121M	-0.582	0.222	-0.657	-0.893	0.124
L121P	-0.803	-0.252	-0.828	-0.719	-0.672
L121Q	-1.58	-1.54	-1.55	-1.34	-1.35
L121R	-1.34	-0.53	–	-1.68	-2.15
L121S	-1.17	–	-1.63	-1.62	–
L121V	-0.177	-0.817	-0.459	-1.09	-1.8
L121W	-0.292	-1.49	-0.92	-1.77	–
